Experimental findings from the RNAGym collection of RNA variant scans (doi:10.7554/elife.90254) are described below.

First the molecules themselves.
B1: LINE1-full (parent)
chain: UACGUAGGUGGUUUUCCCCUGAUAGUGCUAAGGGGGCCUGGAAGUUUGGACUGGGCAGAGCUCAACACAGCGUGGCAAAGUGGCUGUGGCUAGACUGCCUCUCUGGAUUCCUCGUCACUCAGCAGGGCAUCUCUGAGAGAAAUGCC

Read counts are not given, so values of variants with three or more changes are uncertain.

Variants of B1 are the subject of this series. Description: self-cleavage, relative activity (ratio to wild type); higher = more cleavage; in vitro, sequencing; the parent is a self-cleaving ribozyme.
On to A69U A92U A136G, for which the self-cleavage was 0.04. In the case of A67U A92G C116U U130C, the self-cleavage stood at 0. On to C68U U96C A140C, for which the self-cleavage turned out to be 0.01. On to C71A U108C U115C, for which the self-cleavage came to 0.82. As for A69U A79U U102C, the figure is 0.

Take A67U U115A A142G: the self-cleavage was 0.04. Take G72A A79G U87C: the self-cleavage was found to be 0.09.

Regarding A69G A124U U130G U134C, the self-cleavage came to 1.53. In the case of A67G C110A U130C, the self-cleavage stood at 0.25. With A67G U112A A140G, the self-cleavage is 1.26. As for A67G G125A U143A, the self-cleavage is 0.28. Take A69G A79G A136U: the self-cleavage stood at 1.75. For the variant A67U U85A G106U, the self-cleavage amounted to 0. As for C71U U87C U96C G122C, the figure is 0. For G70U U104C A117G A124G the value was 0. Turning to A69G U134A A140G, the self-cleavage was 0.08.

As to A67G U85A A124G A142G, the self-cleavage is 0. For A67U A107U A138U, the self-cleavage is 0.09. For A67G U81C G127C, the self-cleavage worked out at 1.23. For the variant A67U U102C A124G, the self-cleavage is 0. For A67U U73G A138G, the self-cleavage amounted to 0.12. For A67G U81A U96C U109C the value was 0; for A67G U85C U143A, 0.27. On to A69G U96C U130C A142G, for which the self-cleavage came to 0.22. As for C71U G93A A107G U108C, the figure is 0.03. For the variant A67C A78G U104A, the self-cleavage was 0. A69G A107U C120U C146A: the self-cleavage is 0.45. For A69U A121G A140C the value was 0.07. For the variant G72A A129G A138G, the self-cleavage is 1.96. Turning to C71G C84U U134C A142G, the self-cleavage was determined as 0.03. For C68U U112C C128U, the self-cleavage was determined as 0.13. As for A69U A79G C118A, the figure is 0.05.

As for A69U U85A U119C, the self-cleavage is 0.74. For A67G C120U U132C, the self-cleavage was 0.61.

C71U A77U U132C: the self-cleavage was 0. In the case of A69G U100A A117G A141G, the self-cleavage came out at 0. As to C68U A77G A124C, the self-cleavage is 0.2. For C71U G88A C113U the value was 0.02. Regarding A67G G75A U102A A124G, the self-cleavage is 0.37. In the case of A67U G72A U119A, the self-cleavage came to 0.09.

Consider A67G C128U A136G, for which the self-cleavage is 0.61.

As to A69U U112C U115A, the self-cleavage came to 0.08.

Consider A67U U96A A129U, for which the self-cleavage amounted to 0.03.

Turning to A69G A77G A140U, the self-cleavage was found to be 0.51. As to A67G A69U A136U, the self-cleavage was 0. Regarding A69G C76U A94G, the self-cleavage was 0.08.

A69U U96A U100C A142U: the self-cleavage was determined as 0.04. For the variant A69U U73G U91C, the self-cleavage stood at 0.23. On to A67G A69G G127A, for which the self-cleavage amounted to 0.06.

In the case of A69G U104A A138U, the self-cleavage worked out at 0. On to A67G A77U U100C, for which the self-cleavage is 0.83. For A67U U81C U115C A141G, the self-cleavage was found to be 0. For C71U U91A A117G the value was 0.48; for G72A A78G U96A, 0.03; for A67G U96A A142G, 0.06. For A69U U130C A142U G144A the value was 0.39; for A67G U85C A136G, 0; for C71U U102C U104G, 0.18. For the variant A67U U115C U143C, the self-cleavage stood at 0.14. With A67G U73A U102A, the self-cleavage came to 0.18.

Take A69G A77G A141G: the self-cleavage is 0.92. As for A69G A117G A138G A140G, the figure is 1.84; as for A67G G72A G82A A129C, 0.46; as for A69G A78G U85C, 2.63.

For the variant A67U U85A U109C A136G, the self-cleavage worked out at 0.02.

Turning to A69C C76U A107G G135A, the self-cleavage is 0.1. As for A67G A78G U81C, the figure is 0.51; as for A69U U81A U96C G126U, 0.03. Take A67U C71U U112C A136U: the self-cleavage worked out at 0.03. Regarding A69G A129C A141G, the self-cleavage turned out to be 0.74. For A69G U104A U143C the value was 0.33. Turning to A69G U102C A142G, the self-cleavage came out at 0. As to A67C A78G A136G, the self-cleavage amounted to 0.14. In the case of A69U U104A U143C, the self-cleavage was found to be 0.04. For C71U U102C A141G, the self-cleavage was found to be 0.5. As for A69U U73C A92U A107G U132C, the figure is 0.19. As for A67G U100C U112C, the figure is 0. A69U A94U C110U A136U: the self-cleavage was 0.01. Turning to A69U U81A U104A A142G, the self-cleavage is 0. For the variant A69G U112C A138G, the self-cleavage stood at 1.53. Consider A69G G82A A138G, for which the self-cleavage came out at 0.63.

Regarding A69U U73A U102C, the self-cleavage came to 0.06.

For A69U A124G U130C U134C, the self-cleavage stood at 0. For A69G A94G U130C, the self-cleavage turned out to be 0.

For G72A U87A C120U, the self-cleavage was determined as 0.04. C71U U102A A141U: the self-cleavage is 0.15. In the case of A67U A78G U108C, the self-cleavage stood at 0.08. Take A67G G106A G114U: the self-cleavage was determined as 0.51.

For the variant A67G A79G U102C U108A, the self-cleavage was determined as 0.

Turning to C71A C123U A140G A141G, the self-cleavage came to 0.11.

In the case of A69G U132C A138G, the self-cleavage was 0.67. As for A69U U85C C113U, the self-cleavage was determined as 0. In the case of A69G U87C U108C, the self-cleavage came out at 0. Take A67G U81G A129G U143G: the self-cleavage was 0.37. As for C71U G106U A141G, the figure is 0.54. For the variant A67U C71U U96A, the self-cleavage is 0.02.

With A69G A117G C133U, the self-cleavage amounted to 0. For A69G A124G C128U the value was 0.09.

As to C68U A107U U108C, the self-cleavage was 0.09. A69G A78G U109C: the self-cleavage stood at 0. For A67G C113U U119C the value was 0.23. For the variant A67G A69U U96C, the self-cleavage turned out to be 0.05. For A67G U73A A107G the value was 0.22; for G72A U73C A77U A92G A117C, 0.09. For A69G C99U U115A, the self-cleavage was determined as 0.2. Consider C71A C84A U96C, for which the self-cleavage amounted to 0.03. As for A69G C90U A136G, the figure is 0.03; as for A69U U109C C123U, 0.06; as for A67G A124U A136G, 0.72. With A69U U81C U115A, the self-cleavage was found to be 0. As for G72A U85C A140G, the figure is 0.05; as for C71U A117G A138G, 1.13; as for A67U U85G A141G, 0.05. For the variant A69G U108C G144A, the self-cleavage worked out at 1.95. As for A69U U104C U115A, the self-cleavage was determined as 0.23. In the case of C68A G72A C99U U100C, the self-cleavage is 0.04. Consider C68A A69U A78U A107G A124G A138G, for which the self-cleavage is 0.01. On to A67C U102C A142G, for which the self-cleavage turned out to be 0.03. As for A69G A117U U143A, the self-cleavage was 0.54. For the variant G70A G122A U134C A142G, the self-cleavage came out at 0.36. For A69G U85A A121G the value was 0. Consider A69G U87A U102C A121U, for which the self-cleavage came to 0.07. Regarding A67G U81C U112C, the self-cleavage worked out at 0. As for A69U C71U U81C A107G U134C, the figure is 0; as for A67G U108C U119C, 0. In the case of C68U G70A U104A, the self-cleavage came out at 0.11.

Consider G70C U91C A140G, for which the self-cleavage amounted to 0.02. For the variant A67U A107G U109C U134A, the self-cleavage was determined as 0.11.

Consider A69U G72A A92U U104A U130C, for which the self-cleavage was 0.02. A67C U73C U104A: the self-cleavage amounted to 0.

In the case of A69U A78U U108G, the self-cleavage is 0.08. On to A69G A107G A136U, for which the self-cleavage is 0.71. As for A69U A78C U87C, the figure is 0; as for C68U A107G U108A, 0.11. As for A67G U96C U108C, the figure is 0; as for C71A U87A U134A, 0.02; as for A69U C84U A140G, 0.01. For A69G C113U U134C the value was 0.36; for A67C U81C A138G, 0.16; for A69G U115C A129U U132C, 0.88. For A69G U115A A142G, the self-cleavage turned out to be 0.32. Turning to A67G A77U U108C, the self-cleavage was 0.08. As for A69G A92G A94G C113U A129G, the figure is 0; as for A69U U109A A142G, 0.05.

As for A69G A77G A79G A117U A141G, the self-cleavage turned out to be 0.84. Take A67G U104A A136U: the self-cleavage was found to be 0.53. As for A69U A140G U143C, the self-cleavage amounted to 0.07.

G70A A77G C84A U100C: the self-cleavage came out at 0.34. Consider A67G A77G G82A, for which the self-cleavage stood at 1.18. As for A69G U112C A141G, the self-cleavage turned out to be 0.42. For the variant A67U U87C A136G, the self-cleavage was found to be 0.23. As to A67G G82A A142G, the self-cleavage was determined as 0.74.

Take G70U A77U A140G: the self-cleavage is 0.03.

As for C71A A78G G93A A140G, the self-cleavage was 0.03.

A67U U87A U91A U143A: the self-cleavage worked out at 0.57. For A69G U115G A141G, the self-cleavage came out at 0.82. For A67G C68U U91C U130C the value was 0.02; for A67G G72A G114A, 0.35. A69U A77U A138U: the self-cleavage worked out at 0.04. For the variant A67G C133A G144A, the self-cleavage stood at 0.77. On to A67U A77G U87C, for which the self-cleavage is 0.53. On to A67U A77G G83A U87C, for which the self-cleavage is 0.08.

For the variant A69G A78G U91A U102A, the self-cleavage stood at 0.15. For A67G U91A U112C the value was 0; for A67G C116U A117G, 0. For A67G G126A A136G, the self-cleavage came out at 0.59. With A67G U96C U115C A140G, the self-cleavage amounted to 0.
